Paper PMC5007379
These are yes or no findings as the source states them, for the method shown. Binding seen in cells or lysates may run through a third protein. Some binding calls cover weakened binding; strength is not graded here.

Protein sequences, listed by entry. Tags and fused reporters are not part of them. Lines headed by an entry give the natural chain unless they say otherwise; changes in a name come on top. Residues count along the entry.
UniProt P52732: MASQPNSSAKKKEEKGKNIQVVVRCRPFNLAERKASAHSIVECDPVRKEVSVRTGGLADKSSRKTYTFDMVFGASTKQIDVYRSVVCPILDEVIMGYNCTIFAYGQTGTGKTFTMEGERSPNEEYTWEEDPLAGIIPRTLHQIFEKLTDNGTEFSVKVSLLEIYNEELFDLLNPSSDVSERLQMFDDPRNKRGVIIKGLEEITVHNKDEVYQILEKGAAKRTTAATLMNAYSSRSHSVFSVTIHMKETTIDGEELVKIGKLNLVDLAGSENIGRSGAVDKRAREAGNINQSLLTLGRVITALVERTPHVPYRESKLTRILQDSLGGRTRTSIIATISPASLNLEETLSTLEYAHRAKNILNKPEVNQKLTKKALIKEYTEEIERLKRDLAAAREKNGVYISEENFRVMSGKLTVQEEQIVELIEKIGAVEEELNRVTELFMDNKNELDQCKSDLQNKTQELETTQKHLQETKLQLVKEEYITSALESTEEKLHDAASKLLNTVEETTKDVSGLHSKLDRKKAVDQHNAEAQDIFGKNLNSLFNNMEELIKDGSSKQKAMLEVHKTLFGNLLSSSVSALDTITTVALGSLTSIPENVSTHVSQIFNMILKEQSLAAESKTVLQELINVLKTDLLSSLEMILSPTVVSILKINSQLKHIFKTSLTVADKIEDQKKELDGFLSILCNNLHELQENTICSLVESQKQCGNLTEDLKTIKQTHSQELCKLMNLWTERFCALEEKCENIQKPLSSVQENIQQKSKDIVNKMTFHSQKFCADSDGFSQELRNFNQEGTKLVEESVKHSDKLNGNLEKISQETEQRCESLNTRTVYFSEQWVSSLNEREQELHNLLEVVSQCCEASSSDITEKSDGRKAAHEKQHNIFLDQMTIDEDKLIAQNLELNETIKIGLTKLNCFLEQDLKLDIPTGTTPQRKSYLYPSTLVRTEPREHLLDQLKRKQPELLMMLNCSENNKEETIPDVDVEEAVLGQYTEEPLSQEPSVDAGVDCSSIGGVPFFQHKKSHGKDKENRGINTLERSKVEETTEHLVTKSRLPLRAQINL
GST-Eg5C: residues 790-1056 of P52732
UniProt Q5VTR2: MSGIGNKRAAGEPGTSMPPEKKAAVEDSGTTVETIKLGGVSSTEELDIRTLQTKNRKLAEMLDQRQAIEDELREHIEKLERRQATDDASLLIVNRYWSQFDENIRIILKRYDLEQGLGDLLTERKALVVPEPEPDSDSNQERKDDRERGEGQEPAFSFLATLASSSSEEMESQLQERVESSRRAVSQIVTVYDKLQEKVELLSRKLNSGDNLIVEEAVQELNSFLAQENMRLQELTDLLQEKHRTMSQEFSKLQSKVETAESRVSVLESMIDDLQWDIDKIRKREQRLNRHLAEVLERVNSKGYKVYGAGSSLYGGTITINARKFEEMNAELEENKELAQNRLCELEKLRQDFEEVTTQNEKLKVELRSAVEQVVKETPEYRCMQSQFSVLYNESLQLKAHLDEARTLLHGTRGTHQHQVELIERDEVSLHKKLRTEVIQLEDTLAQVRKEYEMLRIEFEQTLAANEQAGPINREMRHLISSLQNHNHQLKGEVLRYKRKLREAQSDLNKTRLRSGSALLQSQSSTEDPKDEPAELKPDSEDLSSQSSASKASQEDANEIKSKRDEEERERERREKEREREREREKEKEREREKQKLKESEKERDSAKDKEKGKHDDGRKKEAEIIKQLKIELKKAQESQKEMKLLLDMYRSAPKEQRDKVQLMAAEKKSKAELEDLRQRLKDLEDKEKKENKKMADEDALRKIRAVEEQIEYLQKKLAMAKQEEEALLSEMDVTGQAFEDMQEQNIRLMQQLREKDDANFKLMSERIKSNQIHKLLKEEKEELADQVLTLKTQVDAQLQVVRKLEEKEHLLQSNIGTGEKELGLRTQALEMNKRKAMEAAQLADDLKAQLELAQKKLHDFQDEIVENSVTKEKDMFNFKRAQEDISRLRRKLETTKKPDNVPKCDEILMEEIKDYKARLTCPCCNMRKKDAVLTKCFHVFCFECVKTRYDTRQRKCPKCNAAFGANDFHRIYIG
UniProt O75150: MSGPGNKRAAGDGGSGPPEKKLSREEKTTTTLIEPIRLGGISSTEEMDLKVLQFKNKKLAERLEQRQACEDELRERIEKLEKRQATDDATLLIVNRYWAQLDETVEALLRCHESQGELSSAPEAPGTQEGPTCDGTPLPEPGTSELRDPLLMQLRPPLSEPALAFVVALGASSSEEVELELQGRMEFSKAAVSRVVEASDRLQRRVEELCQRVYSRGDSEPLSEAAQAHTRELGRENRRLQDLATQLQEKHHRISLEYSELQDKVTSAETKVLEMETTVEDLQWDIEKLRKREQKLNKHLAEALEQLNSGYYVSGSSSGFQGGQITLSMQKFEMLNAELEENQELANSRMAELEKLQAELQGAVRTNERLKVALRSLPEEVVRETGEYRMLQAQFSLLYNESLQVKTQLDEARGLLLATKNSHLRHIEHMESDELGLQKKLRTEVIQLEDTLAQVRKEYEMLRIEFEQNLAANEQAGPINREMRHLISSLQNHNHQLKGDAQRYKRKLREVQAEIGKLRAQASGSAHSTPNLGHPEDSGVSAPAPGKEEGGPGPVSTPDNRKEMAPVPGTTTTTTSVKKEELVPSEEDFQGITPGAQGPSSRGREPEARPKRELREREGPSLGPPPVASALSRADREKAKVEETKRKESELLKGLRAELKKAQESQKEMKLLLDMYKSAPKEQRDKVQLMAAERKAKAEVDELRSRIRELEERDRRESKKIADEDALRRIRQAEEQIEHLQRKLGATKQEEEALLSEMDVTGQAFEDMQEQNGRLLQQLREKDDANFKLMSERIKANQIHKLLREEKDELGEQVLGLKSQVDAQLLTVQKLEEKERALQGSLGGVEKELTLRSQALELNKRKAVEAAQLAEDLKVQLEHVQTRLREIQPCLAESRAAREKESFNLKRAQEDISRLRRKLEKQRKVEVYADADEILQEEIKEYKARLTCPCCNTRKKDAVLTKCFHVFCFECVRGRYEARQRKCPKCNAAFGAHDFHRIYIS

Legend:
GST-Eg5C = GST-Eg5C (UniProt P52732); test: pull-down; GST pull-down with bacterially expressed GST-Eg5 or bacterially purified GST-Eg5 truncations and in vitro transcribed/translated RNF20 or RNF40; only the target purified
[1] = target: RNF20 (endogenous) (human (endogenous in HeLa, MCF-7, PANC-1)) (UniProt Q5VTR2); test: co-IP; antibodies against endogenous RNF20, RNF40 or Eg5, then immunoblotting; total proteins of HeLa, MCF-7 and PANC-1 cells; also HeLa cells 8 h after release from a double thymidine block (G2/M)
[2] = target: RNF40 (endogenous) (human (endogenous in HeLa, MCF-7, PANC-1)) (UniProt O75150); test: as above
[3] = target: Eg5 (endogenous) (human (endogenous in HeLa, MCF-7, PANC-1)) (UniProt P52732); test: as above
[4] = target: Eg5 (endogenous) (human (endogenous in HeLa, MCF-7, PANC-1)) (UniProt P52732); test: condition: only interphase cells (G1/S, 0 h after release from double thymidine block); co-IP; HeLa cells synchronized at G1/S by double thymidine block, collected 0 h after release (interphase); immunoprecipitation with antibodies against the indicated proteins, then immunoblotting

Substance: in vitro transcribed/translated RNF20 (from UniProt Q5VTR2 1-975)
- binding (GST-Eg5C): binds

Substance: Eg5 (endogenous) (from UniProt P52732 1-1056)
- binding [1]: binds
- binding [2]: binds

Substance: RNF20 (endogenous) (from UniProt Q5VTR2 1-975)
- binding [3]: binds
- binding [4]: no binding
